# According to the supplement of paper PMC11876631:
# ± gives the standard deviation of the averaged measurements. Laboratory Escherichia coli strains with one amino-acid change in an essential protein, pooled on minimal glucose agar with carbenicillin or gentamicin at twice the control MIC (plus kanamycin and chloramphenicol for the plasmids), 48 h. Fold change of barcode share against drug-free plates; higher = less susceptible. Active = above 20 in both replicates (the paper's putatively resistant). '<' = one read or none on drug, '>' = one read or none on a drug-free plate. Shares are relative, so most strains fall below 1 when a few take over. Listed are strains with at least 15 reads on both drug-free plates, and hits; most hits rest on fewer reference reads. Replicate rank correlation about 0.5. Edits are read from barcodes.
# Molecular target: Escherichia coli (laboratory strain)
# Assay: barcode share on antibiotic plates over drug-free plates; higher = less susceptible
# Experimental: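 A pool of E. coli strains, each edited to carry one amino-acid change in an essential protein, was grown for 48 h on minimal glucose agar with or without antibiotic; strain barcodes were sequenced; mean of two replicates.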
# [1] = antibiotic: carbenicillin, 2× MIC (3.1 µg/mL)
# [2] = antibiotic: gentamicin, 2× MIC (MIC 0.45 µg/mL)
Protein,fold change of barcode share [1],fold change of barcode share [2]
hisS F269W (protein) MAKNIQAIRGMNDYLPGETAIWQRIEGTLKNVLGSYGYSEIRLPIVEQTPLFKRAIGEVTDVVEKEMYTFEDRNGDSLTLRPEGTAGCVRAGIEHGLLYNQEQRLWYIGPMFRHERPQKGRYRQFHQLGCEVFGLQGPDIDAELIMLTARWWRALGISEHVTLELNSIGSLEARANYRDALVAFLEQHKEKLDEDCKRRMYTNPLRVLDSKNPEVQALLNDAPALGDYLDEESREHFAGLCKLLESAGIAYTVNQRLVRGLDYYNRTVWEWVTNSLGSQGTVCAGGRYDGLVEQLGGRATPAVGFAMGLERLVLLVQAVNPEFKADPVVDIYLVASGADTQSAAMALAERLRDELPGVKLMTNHGGGNFKKQFARADKWGARVAVVLGESEVANGTAVVKDLRSGEQTAVAQDSVAAHLRTLLG,0.255 ± 0.024,< 0.0054
hisS F269Q (protein) MAKNIQAIRGMNDYLPGETAIWQRIEGTLKNVLGSYGYSEIRLPIVEQTPLFKRAIGEVTDVVEKEMYTFEDRNGDSLTLRPEGTAGCVRAGIEHGLLYNQEQRLWYIGPMFRHERPQKGRYRQFHQLGCEVFGLQGPDIDAELIMLTARWWRALGISEHVTLELNSIGSLEARANYRDALVAFLEQHKEKLDEDCKRRMYTNPLRVLDSKNPEVQALLNDAPALGDYLDEESREHFAGLCKLLESAGIAYTVNQRLVRGLDYYNRTVQEWVTNSLGSQGTVCAGGRYDGLVEQLGGRATPAVGFAMGLERLVLLVQAVNPEFKADPVVDIYLVASGADTQSAAMALAERLRDELPGVKLMTNHGGGNFKKQFARADKWGARVAVVLGESEVANGTAVVKDLRSGEQTAVAQDSVAAHLRTLLG,0.363 ± 0.11,0.0059 ± 0.00013
hisS F133A (protein) MAKNIQAIRGMNDYLPGETAIWQRIEGTLKNVLGSYGYSEIRLPIVEQTPLFKRAIGEVTDVVEKEMYTFEDRNGDSLTLRPEGTAGCVRAGIEHGLLYNQEQRLWYIGPMFRHERPQKGRYRQFHQLGCEVAGLQGPDIDAELIMLTARWWRALGISEHVTLELNSIGSLEARANYRDALVAFLEQHKEKLDEDCKRRMYTNPLRVLDSKNPEVQALLNDAPALGDYLDEESREHFAGLCKLLESAGIAYTVNQRLVRGLDYYNRTVFEWVTNSLGSQGTVCAGGRYDGLVEQLGGRATPAVGFAMGLERLVLLVQAVNPEFKADPVVDIYLVASGADTQSAAMALAERLRDELPGVKLMTNHGGGNFKKQFARADKWGARVAVVLGESEVANGTAVVKDLRSGEQTAVAQDSVAAHLRTLLG,0.252 ± 0.047,0.00998 ± 0.001
hisS F133W (protein) MAKNIQAIRGMNDYLPGETAIWQRIEGTLKNVLGSYGYSEIRLPIVEQTPLFKRAIGEVTDVVEKEMYTFEDRNGDSLTLRPEGTAGCVRAGIEHGLLYNQEQRLWYIGPMFRHERPQKGRYRQFHQLGCEVWGLQGPDIDAELIMLTARWWRALGISEHVTLELNSIGSLEARANYRDALVAFLEQHKEKLDEDCKRRMYTNPLRVLDSKNPEVQALLNDAPALGDYLDEESREHFAGLCKLLESAGIAYTVNQRLVRGLDYYNRTVFEWVTNSLGSQGTVCAGGRYDGLVEQLGGRATPAVGFAMGLERLVLLVQAVNPEFKADPVVDIYLVASGADTQSAAMALAERLRDELPGVKLMTNHGGGNFKKQFARADKWGARVAVVLGESEVANGTAVVKDLRSGEQTAVAQDSVAAHLRTLLG,0.248 ± 0.082,0.00445 ± 0.0025
hisS F133Q (protein) MAKNIQAIRGMNDYLPGETAIWQRIEGTLKNVLGSYGYSEIRLPIVEQTPLFKRAIGEVTDVVEKEMYTFEDRNGDSLTLRPEGTAGCVRAGIEHGLLYNQEQRLWYIGPMFRHERPQKGRYRQFHQLGCEVQGLQGPDIDAELIMLTARWWRALGISEHVTLELNSIGSLEARANYRDALVAFLEQHKEKLDEDCKRRMYTNPLRVLDSKNPEVQALLNDAPALGDYLDEESREHFAGLCKLLESAGIAYTVNQRLVRGLDYYNRTVFEWVTNSLGSQGTVCAGGRYDGLVEQLGGRATPAVGFAMGLERLVLLVQAVNPEFKADPVVDIYLVASGADTQSAAMALAERLRDELPGVKLMTNHGGGNFKKQFARADKWGARVAVVLGESEVANGTAVVKDLRSGEQTAVAQDSVAAHLRTLLG,0.39 ± 0.13,< 0.00994
argH L339D (protein) MALWGGRFTQAADQRFKQFNDSLRFDYRLAEQDIVGSVAWSKALVTVGVLTAEEQAQLEEALNVLLEDVRARPQQILESDAEDIHSWVEGKLIDKVGQLGKKLHTGRSRNDQVATDLKLWCKDTVSELLTANRQLQSALVETAQNNQDAVMPGYTHLQRAQPVTFAHWCLAYVEMLARDESRLQDALKRLDVSPLGCGALAGTAYEIDREQLAGWLGFASATRNSLDSVSDRDHVLELLSAAAIGMVHLSRFAEDLIFFNTGEAGFVELSDRVTSGSSLMPQKKNPDALELIRGKCGRVQGALTGMMMTLKGLPLAYNKDMQEDKEGLFDALDTWLDCDHMAALVLDGIQVKRPRCQEAAQQGYANATELADYLVAKGVPFREAHHIVGEAVVEAIRQGKPLEDLPLSELQKFSQVIDEDVYPILSLQSCLDKRAAKGGVSPQQVAQAIAFAQARLG,39.3 [active],–
